This note sets out measurements from paper PMC4191403.

Protein sequences, listed by entry. Tags and fused reporters are not part of them. Lines headed by an entry give the natural chain unless they say otherwise; changes in a name come on top. Chains listed by the source or under a name are the forms on record and can include a tag or linker. Residues count along the entry.
UniProt P38398: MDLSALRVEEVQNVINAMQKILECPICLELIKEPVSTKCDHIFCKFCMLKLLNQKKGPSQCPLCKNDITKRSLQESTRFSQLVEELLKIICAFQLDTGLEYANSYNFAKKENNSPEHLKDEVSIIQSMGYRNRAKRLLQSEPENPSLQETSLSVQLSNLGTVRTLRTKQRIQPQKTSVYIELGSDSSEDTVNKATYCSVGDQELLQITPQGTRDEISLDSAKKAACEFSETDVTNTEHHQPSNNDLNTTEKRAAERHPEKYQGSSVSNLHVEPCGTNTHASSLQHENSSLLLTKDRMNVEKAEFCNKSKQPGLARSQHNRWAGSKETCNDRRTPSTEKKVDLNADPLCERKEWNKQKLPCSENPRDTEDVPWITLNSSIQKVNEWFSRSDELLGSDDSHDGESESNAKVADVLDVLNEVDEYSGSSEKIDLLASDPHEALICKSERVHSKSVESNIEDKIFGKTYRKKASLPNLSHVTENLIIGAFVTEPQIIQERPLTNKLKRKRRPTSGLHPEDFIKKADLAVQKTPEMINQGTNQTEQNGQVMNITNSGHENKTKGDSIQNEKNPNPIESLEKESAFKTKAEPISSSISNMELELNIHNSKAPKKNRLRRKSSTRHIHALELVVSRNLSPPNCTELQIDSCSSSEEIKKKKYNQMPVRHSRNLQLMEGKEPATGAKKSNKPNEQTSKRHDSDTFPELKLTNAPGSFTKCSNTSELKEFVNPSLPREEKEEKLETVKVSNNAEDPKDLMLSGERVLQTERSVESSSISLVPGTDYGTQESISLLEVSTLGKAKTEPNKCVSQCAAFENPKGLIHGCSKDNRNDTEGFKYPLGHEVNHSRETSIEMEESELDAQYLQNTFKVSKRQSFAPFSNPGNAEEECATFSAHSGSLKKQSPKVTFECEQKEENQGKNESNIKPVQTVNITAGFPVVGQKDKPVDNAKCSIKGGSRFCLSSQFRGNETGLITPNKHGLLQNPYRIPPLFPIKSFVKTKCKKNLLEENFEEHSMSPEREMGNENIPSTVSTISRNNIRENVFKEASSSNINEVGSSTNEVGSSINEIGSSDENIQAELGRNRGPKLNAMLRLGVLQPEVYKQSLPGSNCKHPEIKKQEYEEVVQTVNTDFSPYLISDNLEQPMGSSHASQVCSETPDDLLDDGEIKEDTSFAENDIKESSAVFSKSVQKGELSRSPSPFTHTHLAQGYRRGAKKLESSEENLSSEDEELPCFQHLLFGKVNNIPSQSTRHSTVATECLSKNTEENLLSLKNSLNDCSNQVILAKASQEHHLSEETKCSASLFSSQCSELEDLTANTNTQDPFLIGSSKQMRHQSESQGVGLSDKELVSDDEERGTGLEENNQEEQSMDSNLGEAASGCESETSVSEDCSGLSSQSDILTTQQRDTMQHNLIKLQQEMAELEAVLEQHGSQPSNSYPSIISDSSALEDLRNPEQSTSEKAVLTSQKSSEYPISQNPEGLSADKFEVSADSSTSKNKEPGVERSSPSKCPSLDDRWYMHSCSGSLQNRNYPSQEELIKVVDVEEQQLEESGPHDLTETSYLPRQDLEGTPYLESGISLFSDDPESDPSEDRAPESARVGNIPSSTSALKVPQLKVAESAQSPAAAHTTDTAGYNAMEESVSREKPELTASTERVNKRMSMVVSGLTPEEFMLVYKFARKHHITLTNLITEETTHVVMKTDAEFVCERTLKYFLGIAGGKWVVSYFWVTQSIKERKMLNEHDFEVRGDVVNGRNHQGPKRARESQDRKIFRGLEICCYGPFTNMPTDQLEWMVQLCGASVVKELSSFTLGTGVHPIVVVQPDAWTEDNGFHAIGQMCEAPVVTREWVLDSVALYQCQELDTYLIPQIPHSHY
FLAG-tagged BRCA1 fragment, amino acids 1-1315: residues 1-1315 of P38398
FLAG-tagged BRCA1 fragment, amino acids 302-1863: residues 302-1863 of P38398
FLAG-tagged BRCA1 fragment, amino acids 1313-1863: residues 1313-1863 of P38398
UniProt P78527: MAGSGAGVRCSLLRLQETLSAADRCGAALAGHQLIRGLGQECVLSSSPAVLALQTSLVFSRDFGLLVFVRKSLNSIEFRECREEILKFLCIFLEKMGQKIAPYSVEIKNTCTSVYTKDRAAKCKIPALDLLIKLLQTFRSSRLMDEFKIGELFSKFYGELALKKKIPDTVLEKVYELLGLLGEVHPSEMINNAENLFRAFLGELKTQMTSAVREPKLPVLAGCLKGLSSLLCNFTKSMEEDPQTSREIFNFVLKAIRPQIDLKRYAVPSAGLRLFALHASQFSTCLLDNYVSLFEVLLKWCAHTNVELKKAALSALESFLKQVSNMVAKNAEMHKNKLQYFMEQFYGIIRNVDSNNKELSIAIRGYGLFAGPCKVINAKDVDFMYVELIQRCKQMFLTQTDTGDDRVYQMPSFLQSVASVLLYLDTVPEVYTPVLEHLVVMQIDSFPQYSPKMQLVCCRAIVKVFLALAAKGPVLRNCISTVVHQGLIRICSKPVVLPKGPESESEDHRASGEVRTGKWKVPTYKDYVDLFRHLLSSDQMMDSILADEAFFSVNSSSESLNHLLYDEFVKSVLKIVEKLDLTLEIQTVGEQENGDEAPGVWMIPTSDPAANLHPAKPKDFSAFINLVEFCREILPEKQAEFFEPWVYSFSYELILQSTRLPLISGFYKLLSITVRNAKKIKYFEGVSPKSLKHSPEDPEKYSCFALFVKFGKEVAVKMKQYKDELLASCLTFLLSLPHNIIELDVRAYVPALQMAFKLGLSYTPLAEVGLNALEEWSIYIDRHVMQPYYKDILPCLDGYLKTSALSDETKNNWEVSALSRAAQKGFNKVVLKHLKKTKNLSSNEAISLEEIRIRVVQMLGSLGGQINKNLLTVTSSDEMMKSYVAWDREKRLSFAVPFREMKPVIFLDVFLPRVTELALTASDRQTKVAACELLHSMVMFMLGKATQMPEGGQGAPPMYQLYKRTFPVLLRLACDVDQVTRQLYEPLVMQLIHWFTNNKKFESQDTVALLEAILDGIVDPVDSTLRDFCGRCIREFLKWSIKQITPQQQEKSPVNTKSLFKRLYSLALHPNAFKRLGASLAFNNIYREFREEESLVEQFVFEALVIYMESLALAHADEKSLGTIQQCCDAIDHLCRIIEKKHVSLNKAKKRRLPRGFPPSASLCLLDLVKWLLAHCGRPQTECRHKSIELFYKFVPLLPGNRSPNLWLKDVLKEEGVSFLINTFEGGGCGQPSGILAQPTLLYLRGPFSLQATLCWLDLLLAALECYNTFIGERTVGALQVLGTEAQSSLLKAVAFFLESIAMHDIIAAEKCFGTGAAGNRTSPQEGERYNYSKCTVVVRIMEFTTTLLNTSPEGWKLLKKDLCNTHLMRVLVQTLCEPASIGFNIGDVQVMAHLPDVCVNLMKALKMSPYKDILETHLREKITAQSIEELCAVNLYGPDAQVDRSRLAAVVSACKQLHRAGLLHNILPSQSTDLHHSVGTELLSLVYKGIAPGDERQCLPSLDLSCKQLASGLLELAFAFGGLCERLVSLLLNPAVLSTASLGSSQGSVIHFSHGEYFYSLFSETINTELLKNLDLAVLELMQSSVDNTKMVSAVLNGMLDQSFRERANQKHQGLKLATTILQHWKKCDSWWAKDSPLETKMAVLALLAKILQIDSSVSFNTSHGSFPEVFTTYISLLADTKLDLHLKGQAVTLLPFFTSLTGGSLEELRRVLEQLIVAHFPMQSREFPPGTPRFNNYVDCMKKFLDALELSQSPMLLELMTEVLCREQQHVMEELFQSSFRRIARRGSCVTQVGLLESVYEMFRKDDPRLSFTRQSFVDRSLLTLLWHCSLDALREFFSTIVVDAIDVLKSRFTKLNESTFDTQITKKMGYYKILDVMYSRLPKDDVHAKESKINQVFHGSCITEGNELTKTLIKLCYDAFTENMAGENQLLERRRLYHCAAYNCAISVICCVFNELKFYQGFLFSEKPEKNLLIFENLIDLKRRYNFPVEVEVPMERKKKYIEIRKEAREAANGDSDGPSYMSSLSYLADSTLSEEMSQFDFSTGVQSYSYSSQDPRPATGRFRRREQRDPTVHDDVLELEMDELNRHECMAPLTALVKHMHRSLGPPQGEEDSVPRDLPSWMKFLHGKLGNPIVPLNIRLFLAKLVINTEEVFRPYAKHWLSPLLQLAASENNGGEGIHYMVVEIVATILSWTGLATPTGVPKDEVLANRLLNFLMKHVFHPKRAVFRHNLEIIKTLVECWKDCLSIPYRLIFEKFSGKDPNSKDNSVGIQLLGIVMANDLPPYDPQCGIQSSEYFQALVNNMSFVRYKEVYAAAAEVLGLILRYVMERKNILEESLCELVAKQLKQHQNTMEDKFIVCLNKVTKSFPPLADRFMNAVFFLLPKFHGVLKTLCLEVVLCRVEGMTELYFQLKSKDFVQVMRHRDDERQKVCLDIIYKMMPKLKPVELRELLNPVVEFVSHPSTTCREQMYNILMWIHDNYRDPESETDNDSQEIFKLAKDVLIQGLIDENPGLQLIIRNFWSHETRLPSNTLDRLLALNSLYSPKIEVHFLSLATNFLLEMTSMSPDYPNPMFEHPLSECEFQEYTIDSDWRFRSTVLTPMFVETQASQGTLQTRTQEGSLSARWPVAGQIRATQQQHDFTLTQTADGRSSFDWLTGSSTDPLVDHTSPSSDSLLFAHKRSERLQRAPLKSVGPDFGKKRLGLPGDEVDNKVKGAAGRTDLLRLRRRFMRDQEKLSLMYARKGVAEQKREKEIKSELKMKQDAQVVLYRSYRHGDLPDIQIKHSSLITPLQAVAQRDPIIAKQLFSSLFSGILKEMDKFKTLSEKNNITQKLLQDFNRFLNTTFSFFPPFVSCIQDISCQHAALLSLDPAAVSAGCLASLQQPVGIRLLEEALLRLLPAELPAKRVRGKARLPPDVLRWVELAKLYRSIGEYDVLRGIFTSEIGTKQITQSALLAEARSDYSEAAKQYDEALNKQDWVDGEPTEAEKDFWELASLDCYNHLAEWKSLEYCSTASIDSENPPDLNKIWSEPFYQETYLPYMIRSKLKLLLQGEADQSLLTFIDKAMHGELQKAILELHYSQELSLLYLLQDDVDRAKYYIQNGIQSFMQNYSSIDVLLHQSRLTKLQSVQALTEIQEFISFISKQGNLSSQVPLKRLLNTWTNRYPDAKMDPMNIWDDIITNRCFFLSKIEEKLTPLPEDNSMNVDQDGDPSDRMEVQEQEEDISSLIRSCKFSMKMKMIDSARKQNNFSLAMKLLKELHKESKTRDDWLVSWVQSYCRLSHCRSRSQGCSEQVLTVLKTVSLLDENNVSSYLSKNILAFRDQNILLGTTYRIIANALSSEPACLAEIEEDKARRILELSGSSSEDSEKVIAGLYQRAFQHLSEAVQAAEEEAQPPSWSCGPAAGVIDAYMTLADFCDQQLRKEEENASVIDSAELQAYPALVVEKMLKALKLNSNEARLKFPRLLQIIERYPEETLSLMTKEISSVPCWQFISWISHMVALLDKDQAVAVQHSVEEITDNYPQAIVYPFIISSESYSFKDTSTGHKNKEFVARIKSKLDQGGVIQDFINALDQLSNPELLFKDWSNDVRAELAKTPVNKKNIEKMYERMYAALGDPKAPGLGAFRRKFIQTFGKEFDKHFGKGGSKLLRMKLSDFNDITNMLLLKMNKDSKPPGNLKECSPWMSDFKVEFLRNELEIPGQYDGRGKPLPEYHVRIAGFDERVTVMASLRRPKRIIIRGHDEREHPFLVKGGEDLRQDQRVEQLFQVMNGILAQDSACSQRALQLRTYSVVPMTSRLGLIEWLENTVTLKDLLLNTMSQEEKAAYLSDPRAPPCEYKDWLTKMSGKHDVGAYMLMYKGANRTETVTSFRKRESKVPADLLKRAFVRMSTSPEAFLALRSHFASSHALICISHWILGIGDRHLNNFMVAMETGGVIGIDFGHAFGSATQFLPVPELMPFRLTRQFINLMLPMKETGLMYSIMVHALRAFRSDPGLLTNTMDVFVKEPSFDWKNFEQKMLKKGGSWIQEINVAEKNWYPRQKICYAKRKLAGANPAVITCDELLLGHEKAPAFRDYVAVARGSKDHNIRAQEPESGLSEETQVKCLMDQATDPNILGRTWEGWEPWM
FLAG-tagged N-terminal fragment of DNA-PKcs (amino acids 1-2713): residues 1-2713 of P78527
GST-tagged DNA-PKcs fragment, amino acids 1500-2000: residues 1500-2000 of P78527

Results are given in words; binding and its absence hold for the method and conditions named. For part of these data: Binding seen in cells or lysates may run through a third protein. Some binding calls cover weakened binding; strength is not graded here.

Test [1] deals with BRCA1 (Breast Cancer 1, early onset), endogenous in HeLa cells (human (endogenous in HeLa)) (UniProt P38398). Nature of the test: co-IP; endogenous proteins from HeLa lysate (50 mM Tris pH 7.5, 250 mM NaCl, 1 mM EDTA, 0.1% NP-40), antibody on protein G agarose, 4°C overnight; reciprocal IPs; cells mock or 10 Gy irradiated, with or without 100 μg/ml ethidium, asynchronous or synchronised in S or non-S phase.

For test [2], the target named is FLAG-tagged BRCA1 fragment, amino acids 1-304 (UniProt P38398). Nature of the test: co-IP; FLAG-tagged BRCA1 or fragments transiently expressed in HeLa, IP with FLAG antibody, blot for endogenous DNA-PKcs.
The target in test [3] is FLAG-tagged full-length BRCA1 (UniProt P38398). The description is as above.
Test [4] addresses FLAG-tagged BRCA1 fragment, amino acids 302-1863 (UniProt P38398). Described as above.
In test [5] the target is FLAG-tagged BRCA1 fragment, amino acids 1313-1863 (UniProt P38398). The description is as above.
The target of test [6] is FLAG-tagged BRCA1 fragment, amino acids 1-1315 (UniProt P38398). The description is as above.
The target of test [7] is GST-tagged RING finger domain of BRCA1 (amino acids 1-304) (UniProt P38398). The experiment in a line: pull-down; GST pull-down: purified endogenous DNA-PKcs incubated with GST, GST-RING or GST-BRCT, with or without phosphatase treatment of DNA-PKcs; both purified.
Test [8] has as its target GST-tagged tandem BRCT domain of BRCA1 (amino acids 1599-1863) (UniProt P38398). The test is described as above.
Test [9] has as its target DNA-dependent protein kinase catalytic subunit (DNA-PKcs), endogenous in HeLa cells (human (endogenous in HeLa)) (UniProt P78527). Nature of the test: pull-down; DNA-PKcs immunoprecipitated from HeLa (mock or 20 Gy) with antibody 25-4, washed, left on protein A sepharose, untreated or treated with lambda phosphatase, incubated with purified GST or GST-tagged fragments in wash buffer (50 mM Tris pH 7.5, 150 mM NaCl, 1 mM EDTA, 1% NP-40, 10% glycerol) with BSA, ambient temperature, 2 h; only the binder purified.

Test [10] has as its target FLAG-tagged N-terminal fragment of DNA-PKcs (amino acids 1-2713) (UniProt P78527). Nature of the test: pull-down; FLAG-tagged N-PKcs or C-PKcs immunoprecipitated from Sf9 lysates with FLAG antibody, left on protein A sepharose, incubated with purified GST or GST-BRCT in wash buffer with BSA; only the binder purified.
The target of test [11] is GST-tagged DNA-PKcs fragment, amino acids 1500-2000 (UniProt P78527). The experiment in a line: pull-down; purified GST-tagged DNA-PKcs fragments left on glutathione sepharose, incubated with purified His6-tagged BRCA1 tandem BRCT domain; blot with anti-His and GST antibodies; both purified.

In the case of “DNA-dependent protein kinase catalytic subunit (DNA-PKcs), endogenous in HeLa cells (from UniProt P78527 1-4128)”, the binding entry was “binds” in test [1]; “no binding” in [2]; “binds” in [3]; “binds” in [4]; “binds” in [5]; “no binding” in test [6].
Take “Endogenous full-length DNA-PKcs, purified (from UniProt P78527 1-4128)”: the binding result in [7] is “no binding”; in [8], “binds”.
As for “GST-tagged RING finger domain of BRCA1 (amino acids 1-304) (from UniProt P38398 1-304) (domain or fragment)”, the binding entry in test [9] is “no binding”.
For the substance “GST-tagged tandem BRCT domain of BRCA1 (amino acids 1599-1863) (from UniProt P38398 1599-1863) (domain or fragment)”, the binding result in [10] and in test [9] was “binds” each time.
Regarding “His6-tagged tandem BRCT domain of BRCA1 (amino acids 1599-1863) (from UniProt P38398 1599-1863) (domain or fragment)”, the binding entry in test [11] is “binds weakly”.
